# PubChem BioAssay AID938 (National Center for Advancing Translational Sciences (NCATS), 2007)
# “And” between values parts separate entries of the source, which are not always exact repeats. Equal entries are not always repeated. Screen size: about 73,000 compounds; about 1,800 (2.5%) were called active. This list was built around the results that the source calls inconclusive (neither active nor inactive); the mix of calls is not that of the screen. The call rests on the fitted dose curve; in most records, active means well fitted activation curve with a large enough effect; inconclusive means small, poorly fitted or top-dose-only effect; inactive means no such curve, though single readings can be large or run the other way. Potencies of inconclusive entries are doubtful fits and often do not repeat.
# Assay: qHTS Assay for Agonists of the Thyroid Stimulating Hormone Receptor: Activators of Intracellular cAMP Concentrations in Parental HEK 293; further: nearly all actives have a fitted effect of over 55% in size; on activation: % of control where 0% means no effect
# Conditions: parental HEK293 CNG cAMP sensor, membrane potential fluorescence; activation: at 57.1 µM (top of the series) unless noted
# Method in brief: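 Parental HEK 293 cells stably expressing a cAMP-gated CNG channel were loaded with membrane potential dye containing 100 uM RO 20-1724 for 60 min. Compound added for 30 min; depolarization read as fluorescence intensity at 590 nm.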
# Potency means the concentration at half of the fitted maximal effect; tags describe the fitted curve by direction and shape.
SMILES,Potency,activation
CCc1ccccc1N(C)C(=O)CCc1nc(-c2ccc(C)cc2)no1,"inconclusive: 39.8 µM [activator, single point]",–
CCOC(=O)C1CCN(S(=O)(=O)c2cc(Br)cc3c2N(C(=O)C2CC2)CC3)CC1,"inconclusive: 31.6 µM [activator, single point]",–
O=C(CN1CCOCC1)N1CCN(S(=O)(=O)c2ccccc2)C1c1ccccc1 (stereo not given),"inconclusive: 25.1 µM [activator, single point]",–
COC(=O)[C@@]1(Cc2ccccc2)[C@H]2c3cc(C(=O)N4CCCC4)n(Cc4ccc(S(C)(=O)=O)cc4)c3C[C@H]2CN1C(=O)c1ccccc1,active: 7.94 µM,–
COC(=O)c1cc(NC(=O)C2COc3ccccc3O2)cc(C(=O)OC)c1 (stereo not given),"inconclusive: 31.6 µM [activator, single point]",–
COC(=O)c1cc(COC(=O)c2ccc(OC)c(S(=O)(=O)N3CCCC3)c2)oc1C,"inconclusive: 20 µM [activator, partial curve]",–
CC(C)CN1CCC2(CC1)CCN(C(=O)c1csnn1)CC2,inactive,–
Cc1ccccc1-c1cncnc1NCc1ccccc1,"inconclusive: 0.0251 µM [activator, full curve, poor fit]",–
O=c1c2ccccc2nnn1CSc1ncnc2ccccc12,"inconclusive: 6.31 µM [activator, single point]",–
O=C(O)C(NS(=O)(=O)c1cccc2cccnc12)c1ccccc1 (stereo not given),inactive,–
Cc1c2c(nc3c(C(=O)NC4CCCC4)cnn13)CCCC2,"inconclusive: 15.8 µM [activator, partial curve]",–
CCCn1c2ccccc2c2nc3ccccc3nc21,"inconclusive: 25.1 µM [activator, partial curve]",–
CCCC(C(=O)NC1CCCCC1)N(Cc1ccco1)C(=O)CNS(=O)(=O)c1ccccc1 (stereo not given),"inconclusive: 3.98 µM [activator, full curve]",–
CCC(C)(C)NC(=O)C(c1ccc(F)cc1)N(Cc1ccco1)C(=O)CCC(=O)Nc1ccccn1 (stereo not given),"inconclusive: 31.6 µM [activator, single point]",–
O=C(OCc1c(Cl)cccc1Cl)c1cccnc1,inactive,–
CC(C)CN(C)c1nc(N)c(C(=O)N=C(N)N)nc1Cl,"inconclusive: 39.8 µM [activator, single point]",–
N#CCCNCC1(c2ccccc2)CCCC1,"inconclusive: 6.31 µM [activator, single point]",–
O=C(O)C1CC(=O)N(CCC23CC4CC(CC(C4)C2)C3)C(=Nc2ccccc2)S1 (stereo not given),inactive,–
CCCS(=O)(=O)N1CCCC(C(=O)NCCCN2CCN(c3ccc(F)cc3)CC2)C1 (stereo not given),"inconclusive: 25.1 µM [activator, single point]",–
CCOC(=O)c1[nH]c(C)c(C(=O)N2CCN(c3ccc(F)cc3)CC2)c1C,"inconclusive: 31.6 µM [activator, single point]",–
O=C(Nc1nc(-c2nc3ccccc3s2)cs1)C1CC1,inactive,–
c1coc(-c2nnc(-c3ccc4c(c3)OCO4)o2)c1,"inconclusive: 0.794 µM [activator, full curve, poor fit]",–
COC(=O)Nc1sc2c(c1C(=O)NCc1ccco1)CCCC2,"inconclusive: 20 µM [activator, single point]",–
Cc1cc(N2CCN(C(=O)c3ccco3)CC2)n2nc(C)c(-c3ccc(Cl)cc3)c2n1,inactive,–

SMILES,Potency,activation
O=C(CSc1nnc(-c2cccs2)n1Cc1ccco1)c1ccc2c(c1)OCO2,active: 31.6 µM,–
Cn1c(=O)n(C)c2cc(S(=O)(=O)NCCc3ccccc3)ccc21,"inconclusive: 31.6 µM [activator, single point]",–
CC(C)NC(=O)N1CC[C@@]2(CCCN(C(=O)c3csnn3)C2)C1,inactive,–
CCOc1ccccc1NC(=O)CSc1ccccc1,"inconclusive: 25.1 µM [activator, single point]",–
CCOc1ccccc1C1NC(=O)NC(C)=C1C(=O)OC1CCCC1C (stereo not given),"inconclusive: 0.398 µM [activator, partial curve]",–
Cc1ccn2c(NC3CCCCC3)c(C)nc2c1,"inconclusive: 1 µM [activator, partial curve]",–
Cc1cc2nc(SC(C)C(=O)O)[nH]c2cc1C (stereo not given),inactive,–
COc1ccc(Oc2ncc3nc(-c4cc(F)cc(F)c4)c(=O)n(C4CC4)c3n2)cc1,inactive,–
COc1ccc(C(=O)N2CCC3(CCCN(Cc4ccncc4)C3)CC2)cc1,inactive,–
Cc1noc(C)c1COc1cccc(C(=O)Oc2ccc3c(c2)OCO3)c1,"inconclusive: 10 µM [activator, partial curve]",–
CCOC(=O)c1cc2sc(C)cc2n1C(C)C(=O)OCC (stereo not given),"inconclusive: 25.1 µM [activator, single point]",–
CCN1C(=O)[C@H]2[C@H]3[C@H](O)[C@H](O)C/C(=N/OCc4ccccc4)[C@H]3CC[C@@H]2C1=O,–,inactive: 17.8% [at 11.4 µM]
COc1ccc(-n2cc(-c3ccccc3)c3c(N4CCN(CCO)CC4)ncnc32)cc1,"inconclusive: 15.8 µM [activator, partial curve]",–
O=C(CCN1C(=O)C2C3C=CC(C3)C2C1=O)Nc1ccc(F)cc1 (stereo not given),"inconclusive: 0.316 µM [activator, single point]",–
COc1nc(NCc2ccco2)nc(N2CCC(C)CC2)n1,"inconclusive: 5.01 µM [activator, full curve]",–
c1csc(CNc2nc(-c3ccoc3)nc3ccccc23)c1,inactive,–
O=C(CN1CCN(S(=O)(=O)c2ccc(Br)cc2)CC1)Nc1ccccc1F,active: 31.6 µM,–
CSC1=C(C#N)C(CC(C)C)C2=C(CCCC2=O)N1 (stereo not given),"inconclusive: 12.6 µM [activator, partial curve]",–
c1ccc2c(c1)N1CCN=C1N2CCN1CCCCC1,"inconclusive: 20 µM [activator, partial curve]",–
Clc1ccc(-c2nc3nc4ccccc4nc3n2Cc2ccco2)cc1,"inconclusive: 39.8 µM [activator, single point]",–
CCC(=O)N(Cc1ccco1)c1nc(-c2ccccc2)cs1,"inconclusive: 12.6 µM [activator, partial curve]",–
Cc1nc2sccn2c(=O)c1CCN1CCC(=C(c2ccccc2)c2ccc(F)cc2)CC1,"inconclusive: 794 nM [activator, full curve, poor fit] and inconclusive: 5.01 µM [activator, single point]",–
O=C(CN1CCN(c2ccccn2)CC1)Nc1ccc2ccccc2c1,"inconclusive: 20 µM [activator, partial curve]",–
CCN(CC)C(c1ccc(F)cc1)c1nnnn1C1CCCCC1 (stereo not given),inactive,–

SMILES,Potency,activation
COc1ccc2[nH]c3c(c2c1)CCn1c-3nc2ccccc2c1=O,inactive,–
CC1=C(C(=O)OCc2ccccc2)C(c2ccc3ccccc3c2)NC(=O)N1CCCCCC(=O)O (stereo not given),"inconclusive: 25.1 µM [activator, single point]",–
COc1cc(OC)c(-c2nn3c(-c4ccncc4)nnc3s2)cc1OC,inactive,–
COc1ccc(C(=O)Nc2nc(-c3cccs3)cs2)cc1,"inconclusive: 31.6 µM [activator, single point]",–
O=C(CN1CCN(CC(=O)Nc2ccc3c(c2)OCO3)CC1)Nc1ccc(F)cc1,"inconclusive: 31.6 µM [activator, single point]",–
Cc1ccc(Cn2c(C)nc3c(c2=O)c2nc4ccccc4nc2n3Cc2ccco2)cc1,inactive,–
COc1c(-c2ccccc2)oc2c(ccc3occc32)c1=O,active: 39.8 µM,–
CCC(C)(C(=O)NC1CCCCC1)N(Cc1ccco1)C(=O)CNC(=O)c1ccccc1 (stereo not given),"inconclusive: 25.1 µM [activator, partial curve]",–
CCCCN(C(=O)NC(=O)Nc1nc2ccc(OC)cc2s1)S(C)(=O)=O,inactive,–
O=C(O)CCNc1ccc2c(c1)OCCO2,"inconclusive: 31.6 µM [activator, single point]",–
O=c1cnc2cnc(Oc3cccc(Cl)c3)nc2n1CCc1ccccc1,"inconclusive: 0.794 µM [activator, full curve]",–
COc1cc(NC(=O)CSc2nnc(C)s2)cc(OC)c1OC,"inconclusive: 3.98 µM [activator, single point]",–
CCOc1ncccc1C(=O)OCc1nnc(-c2ccccc2)o1,inactive,–
CCOCCCN(C(=O)CNC(=O)c1ccco1)C(C(=O)NC1CCCC1)c1ccccc1C (stereo not given),active: 31.6 µM,–
CN(C(=O)COc1ccccc1)c1nnc(-c2cccnc2)s1,"inconclusive: 3.16 µM [activator, single point]",–
CCn1c(=O)c(=O)n(CC)c2cc(S(=O)(=O)Nc3cccc(OC)c3)ccc21,"inconclusive: 25.1 µM [activator, single point]",–
Cc1ccc(OCc2nnc(SCc3nc4ccccc4[nH]3)n2Cc2ccco2)cc1,active: 31.6 µM,–
O=C(CN1CCN(Cc2ccccc2Cl)C1=O)NC1CCCCCCC1,"inconclusive: 12.6 µM [activator, partial curve]",–
COc1cc(OC)cc(C(=O)NC2CCN(Cc3nnnn3Cc3cccs3)CC2)c1,"inconclusive: 25.1 µM [activator, single point]",–
COC(=O)CNC(=O)[C@@]1(Cc2ccccc2)C=C[C@@H](C)N1C(=O)c1ccccc1,"inconclusive: 20 µM [activator, partial curve]",–
CS(=O)(=O)c1ccc(-c2cc(Br)sc2-c2ccc(F)cc2)cc1,"inconclusive: 15.8 µM [activator, full curve]",–
NC(N)=NC(=O)c1nc(Cl)c(N2CCCCCC2)nc1N,"inconclusive: 15.8 µM [activator, partial curve]",–
